Patent US6911316 (THROMBOTECH, dated 2005)

Molecular target: single chain urokinase type plasminogen activator (scuPA) (UniProt P00749)
Assay: cell-based or functional assay

B1: soluble urokinase plasminogen activator receptor (suPAR) (receptor)
chain: not shown
enhancement of scuPA-mediated fibrinolysis (plasma clot): ≤ 14 fold
